Experimental data: the supplement of paper PMC10338343
± gives the standard deviation. Only a part is listed here, and it is no random draw.

test system: MIWI (PIWIL1) piRISC loaded with L1MC piRNA (30 nt); assay: pre-steady-state target cleavage rate (min^-1); MIWI and MILI are mouse PIWI proteins and EfPiwi is from a freshwater sponge; tags in brackets are library labels; higher = faster piRNA-guided slicing of the target; settings: guide: L1MC piRNA 5'p-UAACUAAAUACUAUGCAAGCUGUAGGUCCU; auxiliary factor: 500 nM mouse GTSF1
Summary of the method: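 Three pooled Cleave-'n-Seq trials supplied the data, with k3 capped at 0.0001 min^-1. In each, […] transcribed, DNA-blocked target RNA library and 1 nM active affinity-purified piRISC with one synthetic guide reacted in HEPES–potassium acetate buffer at 33 °C for 0–8 or 0–960 min, with or without 500 nM GTSF1 partner protein. Uncleaved targets were sequenced and normalised to depth and to weakly complementary targets. A burst-and-steady-state fit provided the pre-steady-state cleavage rate.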
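Note: 1 nM active piRISC with 0.1 nM target library at 33 °C single turnover.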

Row | Sequence | pre-steady-state target cleavage rate
1 | UCCUCCUACACGUUGCAUAGUAUUUAGAAA | 0.394 ± 0.049
2 | UCCACCUAGUGCUUGCAUAGUAUUUAGAAA | 0.101 ± 0.019
3 | UCCUGGAUGUCCUUGCAUAGUAUUUAUGUUA | 0.019 ± 0.006
4 | UCGACCUACAGCUUGCAUAGUAAUUUCAAA | 0.359 ± 0.07
5 | UCCUCCUACAGCUUGCAUAGUAAUAAGUUA | 0.227 ± 0.029
6 | UCCACCUACAGGUUCCAUAGUAUUUAGUUA | 0.0655 ± 0.022
7 | UCGACCUACAGCUUGCAUAGUUAAUACAAA | 0.126 ± 0.036
8 | UGGACCUACAGCUUCCUUAGUAUUUAGUUA | 0.412 ± 0.033
9 | AGCUGCUACAGCUUGCAUAGUAUUUUCAAA | 0.251 ± 0.051
10 | UCCUGGAACAGGUUGCAUAGUAUUUUCAAA | 0.123 ± 0.019
11 | UCCUGGAUCAGCUUCCAUAGUAAUUAGUUA | 0.00529 ± 0.0046
12 | UCCUGGAACAGCUUCCAUAGUAUUUAGAAA | 0.00998 ± 0.0048
13 | UCCUGCUACAGCUUGCAUAGUAUAUAGAAA | 0.136 ± 0.029
14 | UCCUGGAUGAGCUUGCAAUGUAUUUAGUAA | 0.0113 ± 0.0031
15 | UCCUGGAUGUGCUUGGAAAGUAUUUAGUUA | 0.0153 ± 0.0039
16 | UCCUCCUACAGCUUGGAUAGUAUUUACAAA | 0.0583 ± 0.015
17 | UCCUGGAUGUGCUUCAUAGUAUUUAGUUA | 0.105 ± 0.011
18 | AGCACCUACAGCUUGCAUAGUAUUUUCAAA | 0.586 ± 0.084
19 | UCCUGGAUGUGCUUGCAAGUAUUUAGUUA | 0.00394 ± 0.0033
20 | UCCUGCUACAGCUUGCAUAGUAUAUUCAAA | 0.358 ± 0.066
21 | UCCUGGAUGUCCUUGUCAUAGUAUUUAGUUA | 0.00692 ± 0.0045
22 | UCCUGGAACAGCUAGCAUAGUAUUUAGAAA | 0.395 ± 0.054
23 | UCCUGGAUGUCCAUGCAUAGAAUUUAGUUA | 0.00489 ± 0.0044
24 | UCCACCUACAGCUUGCAUAGUAAAAAGUAA | 0.233 ± 0.044
